From the supplement of paper PMC3334620
In all, about 33,000 sequences were measured (“E-score (-0.5 to 0.5)”: median about -0.011, highest 2% from about 0.28 on). The list shows a part of the results.

Target: T1, Gcr1 (UniProt P07261)
T1 sequence: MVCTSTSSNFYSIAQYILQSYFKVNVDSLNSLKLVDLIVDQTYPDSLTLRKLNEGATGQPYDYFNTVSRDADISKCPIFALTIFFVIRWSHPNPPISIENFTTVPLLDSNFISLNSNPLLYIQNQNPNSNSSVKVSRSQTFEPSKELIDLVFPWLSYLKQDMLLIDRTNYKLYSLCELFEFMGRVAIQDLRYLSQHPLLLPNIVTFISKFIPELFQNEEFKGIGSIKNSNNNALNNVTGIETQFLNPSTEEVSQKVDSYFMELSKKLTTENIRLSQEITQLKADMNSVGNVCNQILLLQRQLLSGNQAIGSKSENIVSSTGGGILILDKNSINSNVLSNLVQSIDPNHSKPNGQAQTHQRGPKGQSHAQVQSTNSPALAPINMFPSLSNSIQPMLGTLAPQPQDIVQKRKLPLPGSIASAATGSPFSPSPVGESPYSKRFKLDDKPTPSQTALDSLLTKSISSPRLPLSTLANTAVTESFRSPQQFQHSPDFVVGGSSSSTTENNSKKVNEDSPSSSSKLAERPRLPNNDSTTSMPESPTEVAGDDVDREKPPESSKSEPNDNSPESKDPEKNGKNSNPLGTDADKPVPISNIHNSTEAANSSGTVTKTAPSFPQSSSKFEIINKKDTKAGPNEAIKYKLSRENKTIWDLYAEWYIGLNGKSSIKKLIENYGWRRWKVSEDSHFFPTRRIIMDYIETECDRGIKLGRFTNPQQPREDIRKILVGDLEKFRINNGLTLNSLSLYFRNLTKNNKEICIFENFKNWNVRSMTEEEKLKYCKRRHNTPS
Assay: PBM E-score (8-mer binding enrichment) (E-score (-0.5 to 0.5)); higher = stronger / more preferred TF binding; most listed sequences are background and not binding sites
Details: protein concentration: 100 nM; construct: GST-full length
Outline: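 Detection of bound protein used fluorescent anti-GST, with scans normalised by masliner. The proteins were GST-tagged yeast transcription factors applied at about 100-200 nM to universal all-10-mer Agilent arrays made double-stranded by primer extension. Each ungapped eight-base word, pooled with its reverse complement, was scored with an E-score from the Universal PBM Analysis Suite.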

Sequence | PBM E-score
CCTGGAAC | -0.0042
CCAGATCA | 0.0866
GGGTGCAC | -0.0632
CGTCCGCC | 0.0547
GATGCGGA | 0.033
AAATGTTA | 0.0988
CAAATTAG | 0.124
GGTAATGA | -0.0267
AAGGATGG | -0.051
GGGCTGCA | -0.267
ATCGACCC | -0.0207
GGCTGTAC | -0.208
CGAATGCG | 0.0429
TAGTCGCA | 0.07
AAGAGGGC | -0.212
ACTGTCCC | 0.0212
AACGCTAT | 0.156
ACGATCCT | -0.0105
CTGATTTC | -0.0941
CAGGGCCA | -0.0563
CACACCCG | -0.0802
GCCAAAAC | 0.128
TAATAAAA | 0.146
CTCAGCCA | -0.23
AACGGATT | 0.24

Sequence | PBM E-score
AGGTCCAA | 0.0318
CAGGATAA | 0.0948
CTCATTTA | 0.0532
ATGCGGGG | -0.133
CCAGGAAC | 0.054
CAATATTC | 0.0894
AACTGAAG | -0.0474
AGACAGTC | -0.107
CCTCGGAG | -0.013
AGCCAGAA | 0.13
GCAATGGC | -0.26
TCAAGGCA | -0.127
CAAGTGCC | -0.0408
GGGACACC | 0.184
ACGTTGTA | -0.158
TACTGTGA | -0.0365
ACTGGGCG | 0.1
ACGGTGCA | 0.0874
CTCGGGAC | 0.0214
CCGGCGGA | 0.0634
CATCAGAG | -0.101
GCTTGAAC | -0.109
AGCAATCC | -0.187
CCGGACCG | -0.204
TACAAAGA | 0.0361

Sequence | PBM E-score
ACCGATAG | -0.0662
CATGGTCC | -0.141
ATACTGCG | -0.113
AGTCACAA | 0.0657
ATCCCATA | 0.181
CAAGTTGG | 0.0716
CCCGACAC | -0.129
CCAAGCGA | -0.199
ATGAGGAA | 0.17
AAGCGCGG | 0.0626
GCAAGCCC | -0.265
ATAGCAAA | 0.0142
CATGCGGC | -0.0307
GTATGAGA | -0.0319
CCACTCAC | 0.12
GACCGCGA | -0.133
CATCCTGC | -0.0356
GCGATTAC | -0.147
GGTACAGA | -0.138
CAAGATAG | -0.0951
CACTCTCC | -0.192
CCTTAATA | 0.0869
ACTGGTGA | -0.0641
CCCCCCCA | -0.166
GATGCATA | 0.156

Sequence | PBM E-score
AAGAGAGT | -0.209
AACCAGCA | 0.0412
CCACAACC | 0.225
CTAGAGCC | -0.15
CGGAAAAG | -0.0456
AACCTTTC | 0.0668
ATTGTCGG | -0.0342
ATTTTTGC | 0.202
GCGTGAGA | -0.201
AATGAATT | 0.0972
GAAGAACC | 0.05
GCTGACCA | 0.0433
GCGAGACC | -0.267
ACTTGTTC | 0.01
AGGGATCC | 0.286
ATGTCGCG | -0.0443
CGAGAACG | -0.0533
AGCACGAG | 0.0114
GGTATCAA | 0.0161
ACAGGACC | 0.0207
CCTCCCGC | -0.145
TCTCCGCA | -0.0343
CACGCAGA | -0.137
ACTACAAC | 0.0309
TATGGGAA | 0.129

Sequence | PBM E-score
AAAAACGA | 0.135
GTTGGGGA | 0.113
AGTGGGTA | 0.0272
CACATGGG | 0.0536
AGCATCCC | 0.33
AGACCGAT | -0.146
GAAGCGTC | 0.268
CCTCCTCG | -0.262
GAACGGGC | -0.0356
AGTCTGCG | -0.0644
CAGGTACC | 0.038
ACCTGGGG | -0.0986
CCGCTTAA | 0.0158
CGACGCCC | 0.287
TAAGAGTA | -0.0195
CTGCATTA | -0.192
CCAGAGGC | 0.183
CATGATCA | -0.0223
AGGCTATA | -0.0532
GGACTGGA | -0.0243
CCAGCCAG | -0.168
AGATATTA | 0.211
TACCTTCA | -0.148
AGACGCCA | 0.283
GCGATCCA | -0.12

Sequence | PBM E-score
ACCTCCTG | 0.0018
AAACTCGG | 0.0566
ACCCTGGG | -0.0476
GATCAAGA | 0.0722
AATGAAAC | 0.213
AACGCGGG | -0.0186
CACCGAGG | -0.183
CATCAGCC | -0.131
ATCGGCAA | -0.0338
ACTGCAGC | -0.0382
ACCGCCAC | 0.0444
AAGGAATT | 0.0201
GCCGCCCC | 0.188
AGGTGAAG | -0.0354
TGTCGACA | -0.233
GTACATAA | -0.00437
GCACCGCA | 0.131
ACAGATTC | 0.176
ATTTACAG | -0.0896
AAGTGTCT | -0.0238
AAAGAGTC | -0.0716
AAGCAGCT | 0.33
ATGTGCAC | -0.201
AGAGTCCC | 0.0617
GGTAGACA | 0.0236

Sequence | PBM E-score
ATCTCTTA | 0.0968
CTGCTGCC | -0.0289
CCGCGCGC | -0.135
AACCGTGG | -0.00526
ACCCAGTA | 0.265
CATTAATA | 0.184
ACGTCTCG | -0.22
GTGGAGTA | -0.114
ACGAACGG | -0.134
AATAGAGA | -0.0168
CAAGCGAG | 0.0239
CATCCCCA | 0.0781
GCATAGAA | -0.0243
ACGCTAGC | -0.22
TAGCCATA | -0.218
ATGGGAGC | 0.1
CTATGCAC | -0.129
TGAGCCAA | -0.167
GACACACC | -0.159
CAACTGGA | 0.212
GATGCGCC | 0.067
AAGAATTG | 0.0115
